According to PubChem BioAssay AID686979 (National Center for Advancing Translational Sciences (NCATS), 2013):
Hit rate of the full screen: of about 420,000 compounds, about 50,000 (12%) were called active. The inconclusive results got no clear call from the source; some entries with a clear call stand among them for comparison. Calls come from the whole dose curve; as a rule, active = well fitted inhibition curve with a large enough effect; inconclusive = small, poorly fitted or top-dose-only effect; inactive = flat fitted curve, though single readings scatter. Potencies of inconclusive entries are left out as doubtful fits.
% is set by controls: 0 for no effect and ±100 for the full control effect; potency is the fitted concentration of half-maximal effect; tags give direction and shape of the fitted curve.

Test: qHTS for Inhibitors of human tyrosyl-DNA phosphodiesterase 1 (TDP1): qHTS in cells in presence of CPT; note: nearly all actives have a fitted effect of over 55% in size
Details: chicken DT40 Tdp1-/-;hTDP1 cells + 20 nM CPT, ATP luminescence, 48 h; activity change, negative = growth inhibition: at 46.2 µM (top of the series) unless noted
Outline: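 Cell growth measured by CellTiter-Glo luminescence after a minimum 48 h, 37 C compound exposure with 20 nM CPT in Tdp1-knockout DT40 cells stably expressing hTDP1, seeded 400/well; qHTS titration format.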
For `CCOc1ccc(-c2cnc(NCc3ccc(OC)cc3OC)n2C)cc1`, the Potency was inconclusive [inhibitor, single point]. With `CC(C1CC1)N(Cc1ccccc1)C(=O)NC(=O)c1cccc(F)c1` (centres undefined) the Potency was inconclusive [inhibitor, single point]. With `COc1ccccc1S(=O)(=O)Cc1ccc(C(=O)N2CCCC2)o1` the “activity change, negative = growth inhibition” value was inactive: 2.49%. For `CC(C)c1ccc(NC(=O)C2Cc3c(-c4cccc(F)c4)ccnc3O2)cc1` (centres undefined), the Potency was active: 16.4 µM. For `CC(C)(C)NC(=O)C(c1ccncc1)N(Cc1ccco1)C(=O)c1ccc(-c2ccccc2)[nH]1` (centres undefined), the Potency was inconclusive [inhibitor, single point]. With `CC(=O)c1ccc(NC(=O)c2ncn(-c3ccccc3)n2)cc1` the Potency was inconclusive [inhibitor, single point]. In the case of `CC(C)NC(=O)N(C)C[C@@H]1OCc2ccccc2-c2c(n(C)c3ccccc23)C(=O)N([C@@H](C)CO)C[C@@H]1C`, the “activity change, negative = growth inhibition” value was inactive: -19.9%. With `Cc1cc(NC(=O)c2ccccc2-c2ccccc2)ccc1Br` the Potency was inconclusive [inhibitor, single point]. In the case of `CCc1ccc(CN(C(=O)c2cc3ccccc3oc2=O)C2CCS(=O)(=O)C2)cc1` (centres undefined), the Potency was “inactive”. With `Cc1ccc(CSc2cn(CC(=O)N3CCCCC3)c3ccccc23)cc1` the Potency was inconclusive [inhibitor, single point]. With `C/C(=N\NC(=O)NC1CCCCC1)c1ccc(OC(F)F)cc1OC(F)F` the Potency was active: 23.1 µM. With `CC(C)(C)N(Cc1ccccc1)C(=O)COC(=O)C1=NN(c2ccccc2)C(=O)CC1` the “activity change, negative = growth inhibition” value was inactive: 9.12%. In the case of `O=C(NC1CCCCCC1)c1ccc(CS(=O)Cc2ccccc2Cl)o1` (centres undefined), the Potency was inconclusive [inhibitor, single point]. For `COc1ccc(OC)c(Nc2ncnc3ccc(Br)cc23)c1`, the Potency was inconclusive [inhibitor, partial curve]. For `NN1C(=O)/C(=C\c2ccco2)SC1=S`, the “activity change, negative = growth inhibition” value was inactive: 2.18%. With `CCc1c(C)sc2c1CCN(Cc1ccc(F)cc1)C2c1ccccc1` (centres undefined) the Potency was inconclusive [inhibitor, single point]. In the case of `Cc1ccc(OCCC(=O)OCC(=O)NCc2ccccc2)cc1`, the “activity change, negative = growth inhibition” value was inactive: 0.0523%. For `COc1ccc2cc3cc(C(=O)NCC4COc5ccccc5O4)oc3nc2c1` (centres undefined), the Potency was inconclusive [inhibitor, single point]. In the case of `O=C(NC1CCCCC1)c1cc(F)cc2c1OCOC2`, the “activity change, negative = growth inhibition” value was inactive: -26.7%. In the case of `CC(C)C[C@H](NC(=O)CCn1nnc2ccccc2c1=O)C(=O)O`, the Potency was inconclusive [inhibitor, single point]. In the case of `Cc1ccc(NC(=O)C2(c3ccc([N+](=O)[O-])cc3)CCCC2)cc1`, the Potency was inconclusive [inhibitor, single point]. In the case of `CCc1c(C)sc(NC(=O)C2CCCO2)c1C#N` (centres undefined), the Potency was inconclusive [inhibitor, single point]. For `Clc1cccc(-c2ccc(C=Nc3ccc(N4CCOCC4)cc3)o2)c1`, the Potency was inconclusive [inhibitor, single point]. In the case of `COc1ccc(CNC(=O)COCc2cc(-c3cccs3)on2)cc1OC`, the Potency was inconclusive [inhibitor, partial curve]. For `Cc1cnc(CNC(=O)C2(C)CCCN2CC(C)C)cn1` (centres undefined), the “activity change, negative = growth inhibition” value was inactive: -17.6%. For `COCCN1Cc2cccc(C(=O)Nc3cc(OC)ccc3OC)c2C1=O`, the Potency was inconclusive [inhibitor, single point]. For `CCCCNC(=O)CCCn1c(=O)c2ccccc2n(Cc2ccccc2C)c1=O`, the Potency was inconclusive [inhibitor, partial curve]. For `O=C1NC[C@H](CCCCN2C[C@H](Cc3ccccc3)N(Cc3ccccc3)C(=O)C2=O)N(CCc2ccccc2)C1=O`, the Potency was inconclusive [inhibitor, partial curve]. With `S=c1nc(SCc2ccccc2)[nH]c2ccccc12` the “activity change, negative = growth inhibition” value was inactive: -14.7%. For `CN(c1ccc(O)cc1)c1nc(O)c(C2=c3ccccc3=NC2=O)s1`, the Potency was inconclusive [inhibitor, single point]. With `CN1c2ccccc2-c2ccccc2S1(=O)=O` the Potency was active: 31.6 µM. In the case of `COCCN(CC(=O)Nc1cccc(C)c1C)C(=O)c1ccc2ccccc2n1`, the Potency was inconclusive [inhibitor, single point]. With `O=C(COc1ccc(S(=O)(=O)NC2CCCCC2)cc1Cl)NCC1CCCO1` (centres undefined) the Potency was inconclusive [inhibitor, partial curve]. In the case of `Cc1cccc(C)c1NC(=O)C(c1ccc(-c2ccccc2)cc1)n1c(=O)c(-c2cc3ccccc3[nH]2)nc2ccccc21` (centres undefined), the Potency was inconclusive [inhibitor, single point]. With `CC(C)CN(CC(C)C)C(=O)CN1c2cccc3cccc(c23)S1(=O)=O` the Potency was inconclusive [inhibitor, single point]. In the case of `CCn1cc(C(=O)NCCc2ccccc2)c(=O)c2cc(S(=O)(=O)N(C)C3CCCCC3)ccc21`, the “activity change, negative = growth inhibition” value was inactive: 5.37%. For `Cc1c(C(=O)Nc2cccc([N+](=O)[O-])c2)csc1-c1ccccc1`, the activity change, negative = growth inhibition was inconclusive: -32.7% [inhibitor]. For `Cc1nc(C(C)NC(=O)c2cc(COc3ccc(C)c(C)c3)on2)c(C)s1` (centres undefined), the Potency was inconclusive [inhibitor, single point]. For `COc1ccc(C2=Nc3ccccc3N(C(=O)c3cc(Cl)cc(Cl)c3)C2C(=O)NCc2ccccc2)cc1` (centres undefined), the Potency was inconclusive [inhibitor, single point]. For `N#C/C(=N\Nc1ccccc1[N+](=O)[O-])C(=N)N1CCCCC1`, the Potency was active: 5.8 µM. For `OCCNCc1ccc(OCc2ccc(Cl)cc2Cl)cc1`, the Potency was active: 18.4 µM. In the case of `COC(=O)c1cc(NC(=O)c2nn(C)c(=O)c3ccccc23)cc(C(=O)OC)c1`, the Potency was inconclusive [inhibitor, single point]. With `Cc1nc(NCc2ccc(S(N)(=O)=O)cc2)c2c(C)c(C)sc2n1` the activity change, negative = growth inhibition was inconclusive: -30.7% [inhibitor]. For `Cc1ccc(C2=Nc3ccccc3N(CC(=O)Nc3cccc(F)c3)C(=O)C2)cc1C`, the Potency was inconclusive [inhibitor, single point].
